# Data reported in PubChem BioAssay AID1159614 (National Center for Advancing Translational Sciences (NCATS), 2016).
# Hit rate of the full screen: of about 45,000 compounds, about 65 (0.1%) were called active. The call rests on the fitted dose curve; in most records, active means well fitted activation curve with a large enough effect; inconclusive means small, poorly fitted or top-dose-only effect; inactive means no such curve, though single readings can be large or run the other way. This is one part of the list.
# Target: Galactocerebrosidase (Homo sapiens) (UniProt P54803)
# Assay: A Novel Cell-Based Assay to Identify Small Molecules for B -Galactocerebrosidase; further: 0% is about no effect; nearly all actives have a fitted effect of over 65% in size
# Settings: 145M-Twi-hGALC-G270D cells (Twitcher mouse brain line with human GALC G270D), HMU-beta-Gal fluorescence, 48 h; series mostly up to 57.5 µM; activation: at the top concentration
# How it was run: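 Fluorescence readout: HMU-β-gal cleavage by mutant GALC (0.1 mM final, citrate/phosphate pH 5.2 with 1 mg/mL taurocholate), stopped with carbonate/bicarbonate plus Triton X-100. Cells: murine Twitcher 145M-Twi expressing human G270D GALC; qHTS for activators.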
# Sequence of UniProt P54803 (P54803 whole entry, looked up): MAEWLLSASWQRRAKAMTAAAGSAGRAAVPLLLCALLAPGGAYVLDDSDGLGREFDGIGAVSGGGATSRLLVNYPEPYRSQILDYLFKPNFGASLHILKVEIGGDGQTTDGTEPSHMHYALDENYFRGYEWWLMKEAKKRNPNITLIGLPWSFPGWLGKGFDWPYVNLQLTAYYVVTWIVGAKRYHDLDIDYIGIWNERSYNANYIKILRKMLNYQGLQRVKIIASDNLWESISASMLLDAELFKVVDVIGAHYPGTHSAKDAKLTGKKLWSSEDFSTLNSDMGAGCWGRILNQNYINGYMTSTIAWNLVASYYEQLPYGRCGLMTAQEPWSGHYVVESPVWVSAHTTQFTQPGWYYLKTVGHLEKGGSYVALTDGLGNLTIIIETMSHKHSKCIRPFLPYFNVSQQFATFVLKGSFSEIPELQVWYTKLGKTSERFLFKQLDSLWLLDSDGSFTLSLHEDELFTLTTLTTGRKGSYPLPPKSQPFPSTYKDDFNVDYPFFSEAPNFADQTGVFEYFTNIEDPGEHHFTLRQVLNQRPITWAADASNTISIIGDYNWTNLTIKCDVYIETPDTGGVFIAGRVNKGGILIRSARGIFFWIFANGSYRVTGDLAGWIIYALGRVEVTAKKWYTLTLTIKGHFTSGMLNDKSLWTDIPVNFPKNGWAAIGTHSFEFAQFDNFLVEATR
row,SMILES,activation
1,Cn1c2ccccc2c2c(C(=O)N3CCN(c4cccc(Cl)c4)CC3)cn(C3CCCCC3)c(=O)c21,inactive: -14.8%
2,COc1ccc(OC)c(CCNC(=O)c2cc3cccc4c3n2CC(C)S4)c1 (configuration not stated),inactive: -48.3%
3,Cn1c(=O)c2c(nc(CN3CCN(c4ccccc4F)CC3)n2Cc2ccccc2F)n(C)c1=O,inactive: -25.8%
4,Cn1c(=O)n(C)c2cc(N3CCOCC3)c(NC(=O)c3ccc(Cl)cc3)cc21,inactive: -17.4%
5,COc1cccc(CNC(=O)CCCn2ncn3c(cc4occc43)c2=O)c1OC,inactive: 2.31%
6,CCSc1ncc(Cl)c(C(=O)Nc2ccc(S(=O)(=O)Nc3ncccn3)cc2)n1,inactive: -15.4%
7,Cc1cccc(C(=O)Nc2nc3nc(-c4ccccc4)cc(=O)n3[nH]2)c1,inactive: -7.22%
8,CCCOC(C(=O)OC1CCN(C)CC1)(c1ccccc1)c1ccccc1,inactive: -4.79%
9,O=C(CCS(=O)(=O)c1cc(Br)cc2c1N(C(=O)C1CC1)CC2)N1CCN(c2cccc(C(F)(F)F)c2)CC1,inactive: -17.5%
10,O=C(Cn1c(=O)n(Cc2ccc(C(=O)NCc3ccc4c(c3)OCO4)cc2)c(=O)c2ccccc21)Nc1ccccc1F,inactive: -13.1%
11,Cc1cccc(N2C(=O)N(Cc3cccc(C#N)c3)c3ccccc3S2(=O)=O)c1,inactive: -6.84%
12,Cc1ccc(CSc2nc3ccncc3n2Cc2nc(-c3ccccc3C)oc2C)cc1,inactive: -5.33%
13,CCCNC(=O)c1c(NC(=O)c2ccccc2)sc2c1CCC(C(C)(C)C)C2 (configuration not stated),inactive: -12.6%
14,COc1ccc(CCNC(=O)CS(=O)(=O)Cc2nc(-c3cccc(Cl)c3)oc2C)cc1OC,inactive: -11.2%
15,COc1ccc(-c2cc(C(=O)NCCc3ccccc3)c3c(-c4ccc(Cl)cc4)[nH]nc3n2)cc1,inactive: -8.96%
16,C1N2CN3CN1CN(C2)C3,inactive: -9.15%
17,COc1ccc(CNC(=O)c2cccn2-c2nnc(N3CCCCC3)s2)c(OC)c1,inactive: -20.8%
18,CC(C)(C)c1ccc(C(=O)NC(Cc2c[nH]c3ccccc23)C(=O)OCC(=O)c2ccc(Br)cc2)cc1 (configuration not stated),inactive: -13.6%
19,COc1ccc2c(c1)c1c(c(=O)n(-c3cccc(C)c3)c(=O)n1CC(=O)NCc1ccc(C)cc1)n2C,inactive: -11.9%
20,CC(C)N(Cc1nc(-c2ccc(Cl)cc2)no1)C(=O)c1ccco1,inactive: -43.4%
21,CCCc1nnc(NC(=O)C(CC)Sc2nnc3c4ccccc4n(C)c3n2)s1 (configuration not stated),inactive: -11.6%

row,SMILES,activation
1,COc1ccc(CNC(=O)c2sc3nc4n(c(=O)c3c2C)CCC4)cc1,inactive: -19%
2,COc1ccc(-n2ccn(CC(=O)Nc3ccc(C)cc3C)c(=O)c2=O)cc1,inactive: -14.6%
3,Cc1ccc(OCC(=O)Nc2ccc3nn(-c4ccc(C)cc4)nc3c2)cc1,inactive: -18.3%
4,COC(=O)c1cc(C)nc2c1c(=O)nc(SCc1ccccc1Cl)n2C1CC1,inactive: -15.2%
5,Cn1cnc(S(=O)(=O)N2CCC(C(=O)Nc3ccc(Cl)c(C(F)(F)F)c3)CC2)c1,inactive: -13.7%
6,CCOC(=O)N1CCC2(CC1)OC(=O)C(C)=C2C(=O)NCc1ccccc1OC,inactive: -9.66%
7,COc1ccccc1N1CCN(C(=O)CNS(=O)(=O)c2ccc(Br)s2)CC1,inactive: -1.23%
8,CCc1nnc2c(Nc3ccccc3Br)nc3ccccc3n12,inactive: -6.19%
9,Cc1cccc(CCNC(=O)CCS(=O)(=O)c2cc3c(cc2C)NC(=O)CO3)c1,inactive: 3.43%
10,Cc1nn(CCC(=O)Nc2ccccc2Br)c(=O)c2nn(-c3ccccc3)c(C)c12,inactive: -10%
11,CCOC(=O)c1cc(-c2ccc(C)cc2)n(CC(=O)Nc2ccc(OC)cc2OC)c1C,inactive: -7.25%
12,Cc1ccc(NC(=O)CSc2nccn2C2CCCC2)cc1Cl,inactive: -3.65%
13,Cc1cccc(C(C)C)c1NC(=O)c1ccc2c(c1)CCCN2S(C)(=O)=O,inactive: -9.88%
14,CCCn1cc(S(=O)(=O)c2cccc(Cl)c2)c(=O)c2cc(F)c(N3CCCC3)cc21,inactive: -7.43%
15,Cc1cc(Cl)ccc1OCC(=O)N(Cc1ccc(N(C)C)cc1)C1CCS(=O)(=O)C1 (configuration not stated),inactive: -22%
16,CCc1cc(=O)[nH]c(SCc2nc(-c3ccc(C(F)(F)F)cc3)no2)n1,inactive: -3.49%
17,COc1ccc(N2CCN(C(c3ccc(F)cc3)c3sc4nc(-c5ccco5)nn4c3O)CC2)cc1 (configuration not stated),inactive: -3.63%
18,Cc1ccc(OCC(=O)Nc2nonc2-c2ccc(Br)cc2)cc1,inactive: -18.9%
19,CC(=O)N1CCCC1c1nc2ccccc2n1Cc1ccccc1F (configuration not stated),inactive: 6.52%
20,CCC(C)NC(=O)c1cnn(-c2cccc(F)c2)c1-n1cccc1 (configuration not stated),inactive: 2.43%
21,CCN1CCN(C(c2ccc(F)cc2)c2sc3nc(-c4ccco4)nn3c2O)CC1 (configuration not stated),inactive: -34.5%

row,SMILES,activation
1,Cc1ccc(S(=O)(=O)N(CC(=O)NCCSc2ccc(Cl)cc2)c2cccc(Cl)c2)cc1,inactive: -14.5%
2,Cc1ccc(S(=O)(=O)CCC(=O)N2CCN(c3nc4c(C)c(C)ccc4s3)CC2)cc1,inactive: -46%
3,CCCC(=O)Nc1ccc2nc(SCC(=O)N3CCOCC3)sc2c1,inactive: -8.84%
4,CC(C)OCCCNC(=O)CN1C(=O)c2ccccc2Sc2ncccc21,inactive: -10.6%
5,O=C(Nc1cccc2c1CCCC2)N1CCOc2ccc(Cl)cc21,inactive: 2.02%
6,N#C/C(=C\c1ccc(-c2cccc(Cl)c2)o1)C(=O)Nc1cccc(C(F)(F)F)c1,inactive: 14.8%
7,Cc1oc2ncnc(N3CCOCC3)c2c1C(=O)NCc1ccc(Cl)cc1,inactive: -10.6%
8,Fc1ccc(N2CCN(c3ncnc4[nH]ncc34)CC2)cc1,inactive: -21.3%
9,CC(C)c1cc(-c2nc(-c3cccc(Cl)c3)no2)n[nH]1,inactive: -17.6%
10,CCOc1ccc(CNC(=O)CSc2c3c(nc4ccc(Cl)cc24)CCCC3)cc1,inactive: -8.62%
11,COc1ccc(C)c2sc(N3CCN(C(=O)c4ccco4)CC3)nc12,inactive: 2.11%
12,COc1ccccc1N1CCN(c2cc(C)nc3nncn23)CC1,inactive: 11.8%
13,Cc1ccc(CNC(=O)Cn2c3ncccc3c(=O)n2-c2ccc(C)cc2)cc1,inactive: -18%
14,Cc1nc2c(c(C)nn2C(C)(C)C)c(C)c1CCC(=O)Nc1ccc(F)cc1,inactive: -4.97%
15,Cc1ccc2oc(C(=O)Nc3sc4c(c3C(=O)NCc3ccco3)CCC4)cc(=O)c2c1,inactive: -11.9%
16,Cc1nn2c(=O)cc(COC(=O)c3ccc(NC(=O)COc4ccccc4F)cc3)nc2s1,inactive: -13.4%
17,Cn1c(C(=O)NCc2cccc(Cl)c2)cc2oc3ccccc3c21,inactive: -12.6%
18,CC(=O)c1ccc(N2CCN(C(=O)CCCn3c(=O)[nH]c4ccsc4c3=O)CC2)cc1,inactive: -16.8%
19,COc1ccccc1CCNC(=O)C1CCN(c2nnc(C)c3c(C)n(-c4ccc(C)cc4)nc23)CC1,inactive: -3.12%
20,Cc1ccc(Cn2c(CN3CCN(c4cccc(Cl)c4)CC3)nc3c2c(=O)n(C)c(=O)n3C)cc1,inactive: -24.7%
